{"source": "paper PMC4336329", "about": "(PLoS ONE, 2015)", "note": "Hit rate of the full screen: of about 310,000 compounds, about 2,200 (0.71%) showed an effect of 50% or more. Effects have a minus sign here. The list shows a part of the results."}
{"molecular_target": "human ether-à-go-go-related gene (hERG) potassium channel (human, UniProt Q12809)", "sequence (Q12809 whole entry, looked up)": "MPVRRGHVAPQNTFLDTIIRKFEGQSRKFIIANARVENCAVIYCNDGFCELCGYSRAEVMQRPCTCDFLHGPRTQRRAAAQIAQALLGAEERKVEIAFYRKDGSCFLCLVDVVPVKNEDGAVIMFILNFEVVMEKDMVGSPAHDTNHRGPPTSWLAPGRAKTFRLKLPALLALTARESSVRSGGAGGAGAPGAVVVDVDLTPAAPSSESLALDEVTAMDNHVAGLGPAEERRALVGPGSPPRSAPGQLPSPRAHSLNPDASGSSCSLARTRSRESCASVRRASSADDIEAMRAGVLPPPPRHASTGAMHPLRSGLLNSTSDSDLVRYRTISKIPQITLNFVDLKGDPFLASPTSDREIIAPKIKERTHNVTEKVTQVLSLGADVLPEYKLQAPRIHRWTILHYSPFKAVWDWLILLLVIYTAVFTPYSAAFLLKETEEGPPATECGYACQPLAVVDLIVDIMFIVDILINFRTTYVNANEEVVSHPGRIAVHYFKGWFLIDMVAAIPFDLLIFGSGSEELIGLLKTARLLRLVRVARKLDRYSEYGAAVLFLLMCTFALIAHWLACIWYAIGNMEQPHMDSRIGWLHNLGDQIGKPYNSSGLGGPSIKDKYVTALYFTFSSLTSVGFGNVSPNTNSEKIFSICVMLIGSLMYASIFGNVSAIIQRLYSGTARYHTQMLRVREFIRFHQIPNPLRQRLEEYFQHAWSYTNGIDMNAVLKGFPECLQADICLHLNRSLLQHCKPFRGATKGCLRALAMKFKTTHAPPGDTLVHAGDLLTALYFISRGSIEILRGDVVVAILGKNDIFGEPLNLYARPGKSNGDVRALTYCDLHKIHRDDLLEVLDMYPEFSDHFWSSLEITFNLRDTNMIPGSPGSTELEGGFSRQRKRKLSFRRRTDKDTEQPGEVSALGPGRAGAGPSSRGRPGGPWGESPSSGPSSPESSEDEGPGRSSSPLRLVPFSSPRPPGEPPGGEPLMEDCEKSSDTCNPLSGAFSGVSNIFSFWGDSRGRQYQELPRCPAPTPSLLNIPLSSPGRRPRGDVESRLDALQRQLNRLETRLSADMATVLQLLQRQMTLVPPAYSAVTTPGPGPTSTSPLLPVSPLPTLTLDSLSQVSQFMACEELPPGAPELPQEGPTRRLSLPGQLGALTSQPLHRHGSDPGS", "assay": "primary screen, population patch clamp on CHO cells stably expressing hERG", "units": {"hERG current change (%, negative = inhibition) at 1uM": "%"}}
{"smiles": "COc1ccc(/C(N)=N/OC(=O)c2cccs2)cc1OC", "hERG current change (%, negative = inhibition) at 1uM": 5.26}
{"smiles": "Cc1ccc(NC(=O)c2cccs2)cc1NC(=O)c1cccnc1", "hERG current change (%, negative = inhibition) at 1uM": 12.2}
{"smiles": "COc1ccc(NC(=O)C(Cc2ccccc2)n2cccc2)cc1OC", "note": "(centres unmarked)", "hERG current change (%, negative = inhibition) at 1uM": 8.28}
{"smiles": "CC(=O)c1cccc(NC(=O)c2nc(-c3ccccc3)oc2C)c1", "hERG current change (%, negative = inhibition) at 1uM": 9.95}
{"smiles": "O=C(COc1ccc(-c2ccccc2)cc1)N1CCN(S(=O)(=O)Cc2ccccc2)CC1", "hERG current change (%, negative = inhibition) at 1uM": 5.51}
{"smiles": "CCN(C(=O)CSc1nc2n[nH]c(C)c2c(=N)n1-c1ccc(Cl)c(C)c1)c1cccc(C)c1", "hERG current change (%, negative = inhibition) at 1uM": 9.64}
{"smiles": "Cc1cccc(CCNC(=O)c2cc(S(=O)(=O)N3CCCC3)cn2C)c1", "hERG current change (%, negative = inhibition) at 1uM": 4.9}
{"smiles": "C=CCn1c(SCC(=O)Nc2cc(C)on2)nc2sc(CC)cc2c1=O", "hERG current change (%, negative = inhibition) at 1uM": -0.113}
{"smiles": "COC(=O)CCc1ccc(O)cc1", "hERG current change (%, negative = inhibition) at 1uM": 8.17}
{"smiles": "O=C(Cn1cnc2ccccc21)c1ccc(Cl)cc1", "hERG current change (%, negative = inhibition) at 1uM": 14.2}
{"smiles": "COc1ccccc1CN1CC(C(=O)NCCCc2ccc(F)cc2)CCC1=O", "note": "(centres unmarked)", "hERG current change (%, negative = inhibition) at 1uM": 4.29}
{"smiles": "COc1ccc(/C=C(\\C#N)C(=O)NCC2CCCO2)cc1OC", "note": "(centres unmarked)", "hERG current change (%, negative = inhibition) at 1uM": -10.6}
{"smiles": "C=CCc1cccc2cc(C(=O)NC3CCCC3)c(=O)oc12", "hERG current change (%, negative = inhibition) at 1uM": 2.38}
{"smiles": "COc1ccc(N2CCN(Cc3nc4c(c(=O)n(C)c(=O)n4C)n3CC(C)=O)CC2)cc1", "hERG current change (%, negative = inhibition) at 1uM": 0.812}
{"smiles": "CCOc1ccc(N2CC(C(=O)N/N=C/c3sccc3C)CC2=O)cc1", "note": "(centres unmarked)", "hERG current change (%, negative = inhibition) at 1uM": 0.725}
{"smiles": "CCCN(CCO)Cc1ccc(Br)cc1", "hERG current change (%, negative = inhibition) at 1uM": 9.16}
{"smiles": "CN1C(=O)C2(N=c3ccccc3=N2)c2ccccc21", "hERG current change (%, negative = inhibition) at 1uM": -0.21}
{"smiles": "CC(=O)c1cccc(NC(=O)C2CCCN(S(=O)(=O)c3ccccc3)C2)c1", "note": "(centres unmarked)", "hERG current change (%, negative = inhibition) at 1uM": 7.51}
{"smiles": "CC1=CC(C)C2(CO)COC(c3cccnc3)C1C2C", "note": "(centres unmarked)", "hERG current change (%, negative = inhibition) at 1uM": 3.82}
{"smiles": "CC1Cc2ccccc2N1C(=O)CCN1C(=O)C2C3C=CC(C3)C2C1=O", "note": "(centres unmarked)", "hERG current change (%, negative = inhibition) at 1uM": 11.5}
{"smiles": "COc1ccc(OCCC(=O)OCC(=O)NCCC2=CCCCC2)cc1", "hERG current change (%, negative = inhibition) at 1uM": 6.2}
{"smiles": "Cc1cnc(NC(=O)Cc2cccs2)s1", "hERG current change (%, negative = inhibition) at 1uM": 1.74}
{"smiles": "O=C(NNCC(O)COc1ccccc1)c1ccccc1", "note": "(centres unmarked)", "hERG current change (%, negative = inhibition) at 1uM": 10.8}
{"smiles": "Nc1[nH]ncc1-c1ccc(F)cc1", "hERG current change (%, negative = inhibition) at 1uM": 13.8}
{"smiles": "Cc1cccc(OCc2nnc(SCC(=O)Nc3ncc(C)s3)o2)c1", "hERG current change (%, negative = inhibition) at 1uM": 33.5}
{"smiles": "CCOc1ccc(-n2c(C)c(C(C)=O)c3cc(O)ccc32)cc1", "hERG current change (%, negative = inhibition) at 1uM": 0.305}
{"smiles": "Cc1ccc(S(=O)(=O)N2CCC(C(=O)NC3CCCCC3C)CC2)cc1", "note": "(centres unmarked)", "hERG current change (%, negative = inhibition) at 1uM": 13.9}
{"smiles": "CCCn1c(SCC(=O)NC2CCC(C)CC2)n[nH]c1=O", "note": "(centres unmarked)", "hERG current change (%, negative = inhibition) at 1uM": 17}
{"smiles": "CC(Sc1ccccc1)C(=O)NCC(c1ccco1)N1CCCCC1", "note": "(centres unmarked)", "hERG current change (%, negative = inhibition) at 1uM": 12.8}
{"smiles": "N#CCSc1ccsc1C(=O)Nc1ccc(F)cc1", "hERG current change (%, negative = inhibition) at 1uM": -5.24}
{"smiles": "CCCOC(=O)c1ccc(O)c(OC)c1", "hERG current change (%, negative = inhibition) at 1uM": 13.1}
{"smiles": "Cc1[nH]c2c(Cl)cccc2c1CCNC(=O)C1CCCCC1C(=O)OCC(F)(F)F", "note": "(centres unmarked)", "hERG current change (%, negative = inhibition) at 1uM": 10.2}
{"smiles": "COc1ccccc1CNC(=O)[C@H](C)NC(=O)C1CCN(C(=O)[C@@H]2CCCN2C(=O)OC(C)(C)C)CC1", "hERG current change (%, negative = inhibition) at 1uM": 4.82}
{"smiles": "COc1ccc2[nH]c(C(=O)N3CCN(C)CC3)c(C)c2c1", "hERG current change (%, negative = inhibition) at 1uM": 9.57}
{"smiles": "COc1ccc(/C=C(\\C#N)C(=O)OCC(=O)Nc2ccc(C(C)(C)C)cc2)cc1", "hERG current change (%, negative = inhibition) at 1uM": 7.2}
{"smiles": "Br.CC1CCN(CC(=O)c2ccccc2Cl)CC1", "hERG current change (%, negative = inhibition) at 1uM": 9.96}
{"smiles": "CCN(CC)CCCN1C(=O)C(O)=C(C(=O)c2ccco2)C1c1ccc(OC(C)C)cc1", "note": "(centres unmarked)", "hERG current change (%, negative = inhibition) at 1uM": 2.89}
{"smiles": "COC(=O)c1sccc1NC(=S)OC", "hERG current change (%, negative = inhibition) at 1uM": 10.8}
{"smiles": "O=C(COC(=O)CSc1ccc(F)cc1)NNC(=O)c1ccc([N+](=O)[O-])cc1", "hERG current change (%, negative = inhibition) at 1uM": -7.4}
{"smiles": "O=S(=O)(c1ccccc1)c1nc(NC2CC2)sc1Cl", "hERG current change (%, negative = inhibition) at 1uM": 8.51}
{"smiles": "O=C(NCCc1ccc(C(F)(F)F)cc1)c1ccc(Cl)nc1", "hERG current change (%, negative = inhibition) at 1uM": 12}
{"smiles": "COc1ccc(S(=O)(=O)N(C)CC(=O)Nc2ccccc2OC)cc1", "hERG current change (%, negative = inhibition) at 1uM": 2.01}
{"smiles": "Cn1c(SCC(=O)N2CCN(Cc3ccccc3)CC2)nnc1-c1ccncc1", "hERG current change (%, negative = inhibition) at 1uM": -1.06}
{"smiles": "CSc1nc(C)cc(OCCO)n1", "hERG current change (%, negative = inhibition) at 1uM": 11.1}
{"smiles": "Oc1ccc(/C=N/Nc2ncc(Br)cn2)c(O)c1", "hERG current change (%, negative = inhibition) at 1uM": 8.14}
{"smiles": "COc1ccc(C2CC(=O)c3cnc(N4CCc5ccccc54)nc3C2)c(OC)c1", "note": "(centres unmarked)", "hERG current change (%, negative = inhibition) at 1uM": 8.5}
{"smiles": "CCOc1ccc(/C=N/NC(=O)CN2CCCCC2)cc1OCC", "hERG current change (%, negative = inhibition) at 1uM": 6.57}
{"smiles": "COc1ccc(NC(=O)CN2CCN(CC(=O)Nc3ccc(F)cc3)CC2)c(OC)c1", "hERG current change (%, negative = inhibition) at 1uM": -83.3}
{"smiles": "COc1cc(NC(=O)c2onc(C)c2Cl)cc(OC)c1OC", "hERG current change (%, negative = inhibition) at 1uM": 8.4}
{"smiles": "O=S(=O)(Nc1ccc(Oc2ncccn2)c(Cl)c1)c1ccc(F)cc1", "hERG current change (%, negative = inhibition) at 1uM": 11.2}
{"smiles": "COC(=O)c1ccc(C)c(NC(=O)c2ccc(CN3CCc4ccccc4C3)cc2)c1", "hERG current change (%, negative = inhibition) at 1uM": 11.6}
{"smiles": "COc1ccccc1CCC(=O)OC(C)C(=O)Nc1c(C)n(C)n(-c2ccccc2)c1=O", "note": "(centres unmarked)", "hERG current change (%, negative = inhibition) at 1uM": 11.1}
{"smiles": "COc1ccc(-c2nc(CSCC(=O)NCC3CCCO3)c(C)o2)cc1OC", "note": "(centres unmarked)", "hERG current change (%, negative = inhibition) at 1uM": -2.41}
{"smiles": "O=C(NCCc1ccccc1Cl)C1CCC(=O)N(Cc2ccc(Cl)cc2)C1", "note": "(centres unmarked)", "hERG current change (%, negative = inhibition) at 1uM": -15.8}
{"smiles": "Cc1ccc2nc(-c3ccc(NC(=O)CN4C(=O)NC(C)(c5ccc(OC(F)F)cc5)C4=O)cc3)sc2c1", "note": "(centres unmarked)", "hERG current change (%, negative = inhibition) at 1uM": 14.5}
{"smiles": "CC(=O)NS(=O)(=O)c1ccc(NC(=O)C(Sc2ccccc2)c2ccccc2)cc1", "note": "(centres unmarked)", "hERG current change (%, negative = inhibition) at 1uM": 7.09}
{"smiles": "COc1ccccc1C1c2ccc3ccccc3c2Oc2ncn(CCN(C)C)c(=N)c21", "note": "(centres unmarked)", "hERG current change (%, negative = inhibition) at 1uM": -7}
{"smiles": "CCc1ccccc1NC(=S)N1CCCCCC1", "hERG current change (%, negative = inhibition) at 1uM": 14.7}
{"smiles": "CCOC(=O)c1ccc(NC(=O)CSc2nc(N)c(NC(=O)c3ccc(Br)o3)c(=O)[nH]2)cc1", "hERG current change (%, negative = inhibition) at 1uM": 8.98}
